Data as given in article PMC4336329 (PLoS ONE, 2015).
Out of some 310,000 compounds screened, about 14,000 (4.5%) showed an effect of 50% or more. Effects have a minus sign here. The list shows a part of the results.

What follows are compounds tested against human ether-à-go-go-related gene (hERG) potassium channel (human, UniProt Q12809) (assay: primary screen, population patch clamp on CHO cells stably expressing hERG).
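Also: peak tail current of the secondary pulse compared with the same well before compound.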

human ether-à-go-go-related gene (hERG) potassium channel, sequence (Q12809 whole entry, looked up): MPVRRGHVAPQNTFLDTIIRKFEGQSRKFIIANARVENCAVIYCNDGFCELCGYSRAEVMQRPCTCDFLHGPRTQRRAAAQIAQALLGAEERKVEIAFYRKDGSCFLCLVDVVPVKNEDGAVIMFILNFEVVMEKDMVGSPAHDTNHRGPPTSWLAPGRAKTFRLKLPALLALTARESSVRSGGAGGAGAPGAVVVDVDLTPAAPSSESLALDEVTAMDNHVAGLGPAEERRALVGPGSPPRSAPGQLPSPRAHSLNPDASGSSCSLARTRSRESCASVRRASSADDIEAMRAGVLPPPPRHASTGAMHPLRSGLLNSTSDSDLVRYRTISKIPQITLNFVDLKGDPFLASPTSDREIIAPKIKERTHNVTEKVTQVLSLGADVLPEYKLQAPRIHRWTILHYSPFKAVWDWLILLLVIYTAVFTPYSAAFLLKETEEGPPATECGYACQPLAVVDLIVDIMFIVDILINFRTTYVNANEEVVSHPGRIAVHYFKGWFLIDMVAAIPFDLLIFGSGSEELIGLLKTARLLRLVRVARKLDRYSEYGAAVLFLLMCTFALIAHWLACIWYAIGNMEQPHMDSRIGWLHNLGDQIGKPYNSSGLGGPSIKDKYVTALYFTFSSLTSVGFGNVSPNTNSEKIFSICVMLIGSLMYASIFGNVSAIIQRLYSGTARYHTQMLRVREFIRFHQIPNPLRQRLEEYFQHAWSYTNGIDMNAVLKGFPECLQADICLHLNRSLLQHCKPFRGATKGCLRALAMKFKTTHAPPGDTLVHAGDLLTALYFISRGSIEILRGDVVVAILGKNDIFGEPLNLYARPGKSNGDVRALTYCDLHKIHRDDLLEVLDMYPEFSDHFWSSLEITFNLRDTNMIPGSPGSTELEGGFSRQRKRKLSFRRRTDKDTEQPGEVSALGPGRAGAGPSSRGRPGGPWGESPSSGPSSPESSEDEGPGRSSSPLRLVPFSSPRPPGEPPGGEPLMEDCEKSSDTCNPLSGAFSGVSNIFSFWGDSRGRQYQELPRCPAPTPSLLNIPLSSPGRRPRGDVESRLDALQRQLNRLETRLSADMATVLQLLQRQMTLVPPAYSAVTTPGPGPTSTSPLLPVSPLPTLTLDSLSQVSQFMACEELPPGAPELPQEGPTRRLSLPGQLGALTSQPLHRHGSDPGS

Compound	hERG current change (%, negative = inhibition) at 10uM [%]
CCOc1ccc(S(=O)(=O)/N=C(\N)c2ccccc2)cc1	-7.03
CCc1nc(SCC(=O)N2CCOCC2)c2c(=O)n(C)c(=O)n(C)c2n1	-3.88
C=C(C)c1cccc(C(C)(C)NC(=O)N2CCN(c3ccccc3)CC2)c1	5.89
COc1ccc(OCC(=O)Nc2ccc(NC(=O)c3ccco3)cc2)cc1	-0.279
CCN(CC)c1ccc(CNCc2cccs2)cc1.Cl	-19.2
COCCCN(C(=O)CSCc1ccc(C)cc1)c1c(N)n(Cc2ccccc2)c(=O)[nH]c1=O	6.9
O=C(c1ccc(Cl)cc1)C1CCCN(Cc2cnn(-c3ccccc3)c2)C1 (stereo not shown)	-74.6
OC(CN1CCC(Cc2ccccc2)CC1)C(F)(F)F (stereo not shown)	5.97
O=C1O[C@H]([C@@H](O)CO)C(O)=C1O	7.45
O=[N+]([O-])c1ccc(F)cc1Oc1nc(-c2cccnc2)nc2ccccc12	16.6
O=C(CCC(=O)N1CCOc2ccccc21)NCCCN1CCN(Cc2ccccc2)CC1	-79.8
Cc1nc(C(=O)NNC(=O)c2cccc(Cl)c2)c(C(F)(F)F)o1	5.37
Nc1cc(N)nc(SCC(=O)N2CCN(C(=O)c3ccco3)CC2)n1	0.783
CC1CCN(C(=O)/C(=C\c2cccs2)NC(=O)c2ccccc2)CC1	-38
Cc1ccc(C)c(NS(=O)(=O)c2cc(C(=O)Nc3ccccc3-c3ccccc3)ccc2Cl)c1	2.19
CCOC(=O)CN1C(=O)CN(c2ccc(C)c(C)c2)C1=O	8.53
Cc1cc(NC(=O)C(C)SCC(=O)OC(C)C(=O)Nc2ccccc2C)no1 (stereo not shown)	15
COC(=O)Nc1ncc(CN2CCCCC2)s1	-5
Cc1ccc(NC(=O)CCC(=O)NNC(=O)Nc2cccc(Cl)c2)c(C)c1	-12.4
O=C(c1cc(COc2ccc(F)c(F)c2)on1)N1CCSCC1	-28.9

Compound	hERG current change (%, negative = inhibition) at 10uM [%]
Cc1cc(-c2ccccc2)c(C#N)c(=S)[nH]1	15.4
O=c1[nH]cnc2c1cnn2Cc1ccccc1Cl	11.7
COc1ccc([N+](=O)[O-])cc1NC(=O)C(C)Sc1ccc(C)cc1 (stereo not shown)	-10.8
COc1ccc(N(C(=O)c2ccncc2)S(=O)(=O)c2ccc(OC)c(OC)c2)cc1	-36.9
O=C(NCc1cccs1)c1ccc(Cl)c(S(=O)(=O)N2CCCC2)c1	-19.6
O=[N+]([O-])c1cccc(S(=O)(=O)N2CCC(c3nc(-c4ccncc4)no3)CC2)c1	1.54
C1CN(c2nc(N3CCOCC3)nc(N3CCOCC3)n2)CCO1	-1.75
NC(=S)N/N=C\c1ccccc1OCc1ccccc1	-12.6
O=C(CN1C(=O)c2ccccc2S1(=O)=O)c1ccc2c(c1)OCCCO2	20.3
CC(C)(C)n1nc2c(c1NC(=O)Cc1cccc3ccccc13)CS(=O)C2 (stereo not shown)	2.29
N/C(=N\OC(=O)COc1ccccc1)c1ccccn1	13.6
O=C(Cn1ccc2ccccc2c1=O)NCC(=O)N1CCC2(CC1)OCCO2	5.9
O=C(C#Cc1cccc([N+](=O)[O-])c1)c1ccccc1	17.3
N#C/C(=C\c1ccc[nH]1)C(=O)NC1CC1	3.27
COCCN(C(=O)CSc1nnc(-c2ccc(C)cc2)n1N)c1c(N)n(Cc2ccccc2)c(=O)[nH]c1=O	20.5
CCc1nc(N2CCCC2)c(C#N)c2c1CCCC2	3.98
C[C@@H](C(=O)N1CCN(C(=O)OC(C)(C)C)CC1)n1cc(CCC(=O)O)nn1	19.2
COc1ccc(Cc2nnc(NC(=O)c3ccc(OC(C)=O)cc3)s2)cc1OC	13
O=C(Cc1ccccc1)NCCSCc1ccc(Cl)cc1	-9.5
O=C(O)Cn1cc(F)c(=O)[nH]c1=O	6.86

Compound	hERG current change (%, negative = inhibition) at 10uM [%]
COc1ccc(C(F)(F)F)cc1N/C=C\c1nnnn1-c1ccc(C)cc1	-13.4
O=C(CSc1cc(Cl)ccc1Cl)NCC(=O)Nc1ccc(F)c(F)c1F	5.97
C(=N\n1cnnc1)/c1ccc2c(c1)OCCO2	-4.87
COC(=O)c1sccc1NC(=O)C1CCCCC1C(=O)O (stereo not shown)	14.7
Cc1ccc(NC(=O)Cn2ccc([N+](=O)[O-])n2)cc1Cl	-9.29
N/C(=N\OC(=O)CC1CCCCC1)c1ccccn1	-13.4
N#CCCCCN1c2cccc3cccc(c23)S1(=O)=O	-10.1
Cn1c(=O)c(=O)n(C)c2cc(S(=O)(=O)N3CCCC3C(=O)NCc3cccs3)ccc21 (stereo not shown)	12.3
Cc1cccc2c3c([nH]c12)CCN(C)C3	10
Cc1cc(SC2CCOC2=O)nc2ccccc12 (stereo not shown)	7.36
COc1cc(OC)c(/C=N/NC(=O)c2ccncc2)c(OC)c1	8.58
C#Cc1ccc([C@H]2C=C(C(=O)OCC=C)O[C@@H](OCC)[C@@H]2CCCO)cc1	-13.8
Clc1cccc(Cl)c1CO/N=C/c1c(-c2ccccc2)nc2n1CCS2	1.74
CCc1[nH]nc2c1C1(C(=O)N(Cc3ccccc3)c3ccccc31)C(C#N)=C(N)O2 (stereo not shown)	1.94
CC(C)c1nnc(NC(=O)CCC(=O)NC2CCCCCC2)s1	16.5
Cc1ccc(C(=O)NNc2ncnc3c2cnn3C)cc1	15.2
CCOc1ccc2nc(COC(=O)c3cccc([N+](=O)[O-])c3)c(C(C)=O)[n+]([O-])c2c1	-0.667
C/C(=N/NC(N)=S)c1cc2ccc(O)cc2oc1=O	21.7
